Data taken from article PMC4336329 (PLoS ONE, 2015).
Screen size: about 310,000 compounds; about 2,200 (0.71%) showed an effect of 50% or more. Effects have a minus sign here. Some of the results follow.

Target: human ether-à-go-go-related gene (hERG) potassium channel (human, UniProt Q12809)
Test: primary screen, population patch clamp on CHO cells stably expressing hERG

Sequence of human ether-à-go-go-related gene (hERG) potassium channel (Q12809 whole entry, looked up): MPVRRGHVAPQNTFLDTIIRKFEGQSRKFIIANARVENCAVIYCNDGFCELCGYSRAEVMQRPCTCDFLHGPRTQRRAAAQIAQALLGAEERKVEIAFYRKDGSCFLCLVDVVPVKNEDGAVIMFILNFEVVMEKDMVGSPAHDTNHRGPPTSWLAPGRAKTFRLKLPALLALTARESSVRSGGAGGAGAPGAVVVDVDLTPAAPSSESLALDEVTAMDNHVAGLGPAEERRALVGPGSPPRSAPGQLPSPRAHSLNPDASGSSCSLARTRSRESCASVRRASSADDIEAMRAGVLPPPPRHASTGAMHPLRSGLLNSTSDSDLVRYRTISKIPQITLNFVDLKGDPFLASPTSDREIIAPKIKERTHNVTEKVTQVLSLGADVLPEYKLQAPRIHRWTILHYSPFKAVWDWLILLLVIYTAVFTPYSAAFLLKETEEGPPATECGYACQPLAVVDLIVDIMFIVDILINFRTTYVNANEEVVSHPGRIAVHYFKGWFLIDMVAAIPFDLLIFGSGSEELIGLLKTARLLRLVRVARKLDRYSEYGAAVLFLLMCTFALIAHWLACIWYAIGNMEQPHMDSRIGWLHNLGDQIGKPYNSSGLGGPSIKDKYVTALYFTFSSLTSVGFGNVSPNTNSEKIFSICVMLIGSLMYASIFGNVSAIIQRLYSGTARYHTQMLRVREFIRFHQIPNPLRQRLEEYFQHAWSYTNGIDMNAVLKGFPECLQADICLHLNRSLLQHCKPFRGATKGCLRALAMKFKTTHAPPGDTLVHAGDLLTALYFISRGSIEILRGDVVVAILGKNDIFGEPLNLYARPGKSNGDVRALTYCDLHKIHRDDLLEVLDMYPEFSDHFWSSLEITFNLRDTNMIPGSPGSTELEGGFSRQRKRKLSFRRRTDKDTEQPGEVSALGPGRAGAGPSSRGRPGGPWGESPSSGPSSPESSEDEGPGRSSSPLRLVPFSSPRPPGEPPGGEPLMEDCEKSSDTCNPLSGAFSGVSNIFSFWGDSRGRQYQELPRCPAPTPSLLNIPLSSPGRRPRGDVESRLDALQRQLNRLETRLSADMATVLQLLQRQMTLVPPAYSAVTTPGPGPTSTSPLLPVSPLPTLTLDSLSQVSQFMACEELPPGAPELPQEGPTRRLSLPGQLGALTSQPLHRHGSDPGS

Row | Structure (SMILES) | hERG current change (%, negative = inhibition) at 1uM
1 | Cc1ccn2c(CN3CCOCC3)c(-c3ccccc3)nc2c1 | 1.61%
2 | Cc1cc[n+](C(C)C(=O)c2ccc(Cl)cc2)cc1.[Br-] (stereo not drawn) | 6.3%
3 | O=C(CN1CCN(S(=O)(=O)c2ccc(F)c(Cl)c2)CC1)N1CCOCC1 | 9.65%
4 | COc1ccc(/C=C/C2=CC(C)(C)NC(=S)N2)c(OC)c1 | 22.6%
5 | Cc1ccc(-c2csc(N(Cc3ccco3)C(=O)c3cccs3)n2)cc1 | 6.75%
6 | Cn1ccnc1-c1nc2ccccc2[nH]c1=O | 8.2%
7 | O=C(NC(c1ccccc1)c1ccccc1)N1CCOCC1 | 13.5%
8 | Nc1ccccc1Cl | 7.83%
9 | COc1ccc2cc3c(N)nn(C(=O)Cc4ccccc4OC)c3nc2c1 | -4.4%
10 | O=C(Nc1ccnn1C1CCN(C/C=C/c2ccc(F)cc2)CC1)C1CCCC1 | -79.3%
11 | O=C(C1CCCN(S(=O)(=O)c2ccccc2)C1)N1CCCc2ccccc21 (stereo not drawn) | 4.22%
12 | CSc1nc(O)c(Nc2cccc(Cl)c2)c(=O)[nH]1 | 9.29%
13 | COc1ccc(S(=O)(=O)Nc2ccc3c(c2)OCO3)cc1OC | 18.8%
14 | CC(=O)N1CCN(C(=O)c2cc(S(=O)(=O)N(C)c3ccc(F)cc3)ccc2Cl)CC1 | -1.89%
15 | COc1cc(/C=N\NS(=O)(=O)c2ccccc2)cc(OC)c1OC | 14.7%
16 | CCCCNC(=O)COC(=O)c1ccc(Cl)c(S(N)(=O)=O)c1 | 10.6%
17 | CCOC(=O)CN1C(=O)/C(=C/c2c(F)cccc2Cl)Oc2ccccc21 | 0.272%
18 | CCCCOc1ccc(C(=O)NC)cc1 | 2.01%
19 | N[C@@H](Cn1oc(=O)[nH]c1=O)C(=O)O | 15.8%
20 | Cl.O=C(CNCCO)N1CCc2ccccc21 | -0.586%

Row | Structure (SMILES) | hERG current change (%, negative = inhibition) at 1uM
21 | NS(=O)(=O)c1ccc(-c2ccc(C=C3C(=O)NC(=S)NC3=O)o2)cc1 | 9.92%
22 | Cc1cccc(C(=O)N2CCCC(Nc3ccc(C)c(C)c3)C2)n1 (stereo not drawn) | -2.48%
23 | Cc1ccc2oc(=O)c3cnn(CC(=O)NCCN(C)C)c3c2c1 | 11.5%
24 | O=C(CN(C(=O)c1csnn1)c1cccc2ccccc12)NCc1ccc(F)cc1 | -2.45%
25 | Cn1c(SCC(=O)Nc2nncs2)nnc1C1CC1 | 10.8%
26 | CC12CC3CC(C)(C1)CC(C(=O)N1CCN(C(=O)c4ccco4)CC1)(C3)C2 | 4%
27 | Cc1ccc(C2=NN(CCC(=O)NCCC(C)C)C(=O)CC2)cc1 | 13.2%
28 | CCOC(CNC(=O)CN1C(=O)COc2ccc(S(=O)(=O)N3CCCC3)cc21)OCC | 11.4%
29 | CC(=O)c1cccc(NC(=O)CCNS(=O)(=O)c2cccc3nsnc23)c1 | 12.1%
30 | Cc1cc(N2CCCCC2)nc(NCc2ccccc2)n1 | -3.64%
31 | Cc1cccc(OCC(=O)NNC(=O)Nc2cccc(Cl)c2)c1C | 9.61%
32 | CC(C)Cn1c(N)c(C(=O)COC(=O)c2nccnc2N)c(=O)n(C)c1=O | -6.71%
33 | C=CCNC(=O)C(C)N1c2cccc3cccc(c23)S1(=O)=O (stereo not drawn) | 12.5%
34 | O=C(c1ccc2c(c1)OCO2)N(CC1CCCO1)C1(C(=O)NC2CCCCC2)CCCCC1 (stereo not drawn) | 4.58%
35 | CC(=O)N1CCN(CC(=O)Nc2ccc(C#N)c(Cl)c2)CC1 | -0.422%
36 | CCOC(=O)c1c(C)[nH]c(C(=O)N2CCN(C(=O)OCC)CC2)c1C | 7.64%
37 | OC1=C(O)c2nc3cc(F)ccc3nc21 | 10.4%
38 | COc1ccccc1-c1cc(C(F)(F)F)nc(S(=O)(=O)CCCC(=O)O)n1 | 10.9%
39 | COCCNC(=S)NCc1ccc2[nH]c3c(c2c1)CCCC3 | 6%
40 | CC(=O)Nc1nnc(COc2ccc(Cl)cc2)s1 | 7.78%

Row | Structure (SMILES) | hERG current change (%, negative = inhibition) at 1uM
41 | c1ccc(-c2cc(N3CCCCCC3)n[nH]2)cc1 | 2.14%
42 | FC(F)(F)/C(=N\P(=S)(N1CCOCC1)N1CCOCC1)N1CCOCC1 | 12.7%
43 | Cc1ccc(-n2c(O)c(C=NCCC3=CCCCC3)c(=O)[nH]c2=O)cc1 | 11.2%
44 | O=C(CNC(=O)c1cccs1)Nc1ccc(N2CCOCC2)cc1 | 2.95%
45 | CCn1c(NCc2cc(Cl)ccc2O)nc2ccccc21 | 8.08%
46 | O=C1OCCC1Sc1nc2ccccc2c(=O)n1Cc1ccccc1 (stereo not drawn) | -64.6%
47 | O=C(OCc1nnc(-c2ccccc2)o1)C1CC(=O)N(Cc2ccco2)C1 (stereo not drawn) | 5.68%
48 | Cc1cccc(C(=O)O/N=C(\N)CS(=O)(=O)c2ccccc2)c1 | 5.74%
49 | COc1ccccc1NC(=O)C(=O)NCc1ccccc1Cl | 14.4%
50 | O=C1c2ccccc2CCc2ccc(Br)cc21 | 12.9%
51 | CN(C)c1ccc(C=NCCC2(c3ccccc3)CCOC(C)(C)C2)cc1 (stereo not drawn) | 10.7%
52 | O=C(CN1C(=O)C2C3C=CC(C3)C2C1=O)Nc1cccc(S(=O)(=O)N2CCCC2)c1 (stereo not drawn) | 0.743%
53 | COc1cc(OC)c(NS(=O)(=O)c2cccc(C(=O)OCC(=O)NCC3CCCO3)c2)cc1Cl (stereo not drawn) | 12.9%
54 | COC(=O)c1ccc(NC(=O)c2cccnc2)cc1 | 14.9%
55 | CCN(CCNC(=O)C1CCN(S(C)(=O)=O)CC1)c1ccccc1 | -3.8%
56 | CC(=O)Nc1ccc(OCC(O)CNC2CCCC2)cc1.Cl (stereo not drawn) | 14.8%
57 | O=C(OCc1ccc([N+](=O)[O-])cc1)c1cc(=O)c2ccccc2o1 | 12.8%
58 | CCSc1n[nH]c2nc3c(c(=O)n12)C1(CCCCC1)Cc1ccccc1-3 | -6.7%
59 | N=c1c2c3c(sc2ncn1Cc1ccccc1)CCCC3 | -6.48%
60 | COc1ccc(C(C)=O)cc1CSc1nnc(-c2ccncc2)o1 | 8.85%
